Results on 37 molecules are retold here after the supplement of paper PMC9446081.

Hit rate of the full screen: of about 39,000 compounds, about 220 (0.56%) showed activity. The list shows a part of the results.
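Also: static incubation at 37 °C against the wild-type strain, values averaged over two biological replicates.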

The test system of this experiment is Escherichia coli K-12 BW25113. Kind of experiment: relative growth (OD600 normalised to plate interquartile mean) (fraction); higher = less growth inhibition, active = 0.2 or less. The settings on record: 50 µM; LB; incubation time: overnight (16-24 h).
Consider `C[C@H]1CN([C@@H](C)CO)C(=O)c2cccc(NS(=O)(=O)c3cccs3)c2O[C@@H]1CN(C)CC1CC1`, for which the relative growth is inactive: 0.991.

On to `C[C@H](CO)N1C[C@H](C)[C@H](CN(C)S(=O)(=O)c2cccc(F)c2)Oc2ncc(C#CC(C)(C)O)cc2C1=O`, for which the relative growth is inactive: 1.01.

With `CN1CCN(C(=O)C[C@@H]2C[C@H]3c4cc(NC(=O)c5ccc6c(c5)OCO6)ccc4O[C@H]3[C@@H](CO)O2)CC1`, the relative growth was inactive: 0.981.

Consider `COc1ccc(S(=O)(=O)Nc2ccc3c(c2)CC(=O)N([C@H](C)CO)C[C@@H](C)[C@H](CN(C)S(=O)(=O)c2c(C)noc2C)O3)cc1`, for which the relative growth was inactive: 1.02.

For `Cc1ccc(S(=O)(=O)Nc2ccc3c(c2)C(=O)N([C@H](C)CO)C[C@@H](C)[C@@H](CN(C)C(=O)Nc2ccccc2)OCCCC[C@@H](C)O3)cc1`, the relative growth is inactive: 1.01.

Take `CS(=O)(=O)N[C@@H](C(=O)O)c1ccccc1`: the relative growth was inactive: 1.06.

In the case of `COc1ccc(NC(=O)Nc2ccc3c(c2)C(=O)N([C@H](C)CO)C[C@H](C)[C@H](CN(C)C(=O)Nc2ccc(C(F)(F)F)cc2)O3)cc1`, the relative growth was inactive: 0.985.

Regarding `C[C@@H]1CN([C@@H](C)CO)C(=O)Cc2cc(NC(=O)Cn3cnnn3)ccc2O[C@@H]1CN(C)Cc1ccccc1`, the relative growth is inactive: 1.02.

As to `C/C=C/c1ccc2c(c1)O[C@H](CN(C)S(=O)(=O)c1ccccc1)[C@@H](C)CN([C@H](C)CO)S2(=O)=O`, the relative growth is inactive: 0.985.

`C[C@H](CO)N1C[C@H](C)[C@H](CN(C)C(=O)CCCN(C)C)OCCCC[C@H](C)Oc2ccc(NC(=O)Nc3ccc(F)cc3)cc2C1=O`: the relative growth was inactive: 0.989.

Turning to `C[C@@H]1CCCCO[C@@H](CN(C)Cc2ccc(Cl)c(Cl)c2)[C@H](C)CN([C@@H](C)CO)C(=O)c2cc(NS(=O)(=O)c3cn(C)cn3)ccc2O1`, the relative growth is inactive: 0.975.

On to `C[C@H](CO)N1C[C@H](C)[C@H](CN(C)Cc2ccc(C(=O)Nc3ccccc3N)cc2)OCCCC[C@H](C)Oc2ccc(N(C)C)cc2C1=O`, for which the relative growth is inactive: 0.982.

For the molecule `CCCCN1CC=C[C@@]23O[C@@H]4C=CCCOC(=O)[C@@H]4[C@H]2C(=O)N([C@@H](C)CO)[C@@H]3C1=O`, the relative growth was inactive: 1.03.

For `C[C@@H]1CN([C@H](C)CO)C(=O)c2cc(NC(=O)Cc3cn(C)c4ccccc34)ccc2O[C@H]1CN(C)S(=O)(=O)c1cn(C)cn1`, the relative growth is inactive: 0.991.

On to `Cc1noc(C)c1S(=O)(=O)Nc1ccc2c(c1)C(=O)N([C@H](C)CO)C[C@@H](C)[C@H](CN(C)S(=O)(=O)c1ccccc1)O2`, for which the relative growth is inactive: 1.

With `C[C@@H](NS(=O)(=O)C1CN(C(=O)OCc2ccccc2)C1)C(N)=O`, the relative growth was inactive: 1.02.

On to `C[C@H]1CN([C@@H](C)CO)C(=O)Cc2cc(NC(=O)Nc3ccccc3)ccc2O[C@@H]1CN(C)C(=O)Nc1ccc(C(F)(F)F)cc1`, for which the relative growth was inactive: 0.998.

Take `COc1ccc(S(=O)(=O)N(C)C[C@@H]2OCCCC[C@@H](C)Oc3ccc(NC(=O)Nc4ccccc4)cc3C(=O)N([C@H](C)CO)C[C@H]2C)cc1`: the relative growth is inactive: 1.02.

For `C[C@@H]1CCCCO[C@H](CN(C)S(=O)(=O)c2cccs2)[C@@H](C)CN([C@@H](C)CO)C(=O)c2cc(NC(=O)Nc3ccc4c(c3)OCO4)ccc2O1`, the relative growth is inactive: 0.963.

On to `C[C@H](CO)N1C[C@H](C)[C@H](CN(C)Cc2ccc(C(=O)Nc3ccccc3N)cc2)Oc2ccc(NS(=O)(=O)c3ccc(Cl)cc3)cc2C1=O`, for which the relative growth is inactive: 0.984.

As for `COc1ccc(cc1)CN1C[C@]2(CN(C2)C(=O)C2CCOCC2)c2c(n(c3cc(ccc23)OC)C)[C@H]1CO`, the relative growth was inactive: 0.993.

Turning to `NC[C@H]1O[C@H](O[C@H]2[C@H](O)[C@@H](O[C@H]3O[C@H](CO)[C@@H](O)[C@H](N)[C@H]3O)[C@H](N)C[C@@H]2N)[C@H](N)[C@@H](O)[C@@H]1O`, the relative growth is active: 0.0328.

`C[C@H](CO)N1C[C@H](C)[C@H](CN(C)S(=O)(=O)c2cccc(F)c2)Oc2ncc(Br)cc2C1=O`: the relative growth is inactive: 0.993.

`COc1ccc2c3c(n(c2c1)C)[C@@H](CO)N(C[C@]13CCN(CC1)Cc1cccc(c1)F)C(=O)Nc1ccc(cc1)F`: the relative growth is inactive: 0.961.

For the molecule `Cc1ccc2ncc(-c3ccc4cc(C)ccc4n3)cc2c1`, the relative growth is inactive: 1.03.

`CN1CCC(Nc2nc(Nc3ccc(Oc4ccccc4)cc3)c3c(O)ncc(Br)c3n2)CC1`: the relative growth is inactive: 1.04.

Take `C=CC(C1=CC(=O)C(OC)=CC1=O)c1ccc(OC)cc1` (configuration not stated): the relative growth was inactive: 1.15.

For `CN(C)CCCNC(=O)C[C@H]1CC[C@@H]2[C@H](COC[C@@H](O)CN2S(=O)(=O)c2ccc(F)cc2)O1`, the relative growth is inactive: 0.994.

With `N#Cc1cccc2ccsc12`, the relative growth was inactive: 0.955.

`C[C@@H]1CCCCO[C@@H](CN(C)Cc2ccc(C(=O)O)cc2)[C@@H](C)CN([C@H](C)CO)C(=O)c2cc(NC(=O)Nc3ccccc3)ccc2O1`: the relative growth was inactive: 1.01.

As for `Cc1ccc(S(=O)(=O)N(C)C[C@H]2Oc3ccc(NS(=O)(=O)c4cccs4)cc3C(=O)N([C@@H](C)CO)C[C@H]2C)cc1`, the relative growth was inactive: 1.05.

In the case of `C[C@@H]1CN([C@@H](C)CO)C(=O)c2cc(NS(=O)(=O)c3ccc(Cl)cc3)ccc2O[C@@H](C)CCCCO[C@H]1CN(C)C(=O)Nc1cccc2ccccc12`, the relative growth is inactive: 1.01.

Consider `COc1ccc(NC(=O)N(C)C[C@@H]2OCCCC[C@H](C)Oc3ccc(NS(=O)(=O)c4ccc(OC)cc4)cc3C(=O)N([C@H](C)CO)C[C@H]2C)cc1`, for which the relative growth is inactive: 0.993.

As to `C[C@H](CO)N1C[C@H](C)[C@H](CN(C)Cc2ccc3c(c2)OCO3)Oc2c(NS(C)(=O)=O)cccc2C1=O`, the relative growth is inactive: 1.

On to `NCCCC[C@@H]1NC(=O)[C@H]2C[C@@H](C(=O)O)[C@@H](c3cccc(OCCO)c3)N2C1=O`, for which the relative growth is inactive: 1.02.

On to `C[C@@H]1CN([C@H](C)CO)C(=O)c2cccc(NC(=O)C3CCOCC3)c2O[C@H]1CN(C)Cc1ccc(-c2ccccc2)cc1`, for which the relative growth is inactive: 1.

Regarding `CO[C@H]1CN(C)C(=O)c2ccc(NC(=O)Nc3ccc(Cl)cc3)cc2OC[C@H](C)N(C(=O)Nc2c(C)noc2C)C[C@H]1C`, the relative growth was inactive: 1.
